According to the supplement of paper PMC8728848:
The other results are listed elsewhere or left out.

Assays:
Assay in all cases: glycan array binding signal (z-score within array); higher = stronger binding
Settings in all cases: glycan notation: IUPAC condensed, linker removed
[1] = target: Gal6S(b1-4)Glc6S
Outline: (§1)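 Arrays were curated from the Consortium for Functional Glycomics database, 3228 in total, and kept only where the protein sequence was available. Binding is expressed as a within-array Z-score. This score was averaged across arrays of the same protein sequence at different concentrations or buffers and across linkers, and negative values can be read as non-binding.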

[2] = target: Gal6S(b1-4)GlcNAc
Outline: as §1

[3] = target: Gal6S(b1-4)GlcNAc6S
Outline: as §1

[4] = target: GalNAc(a1-3)Gal
Outline: as §1

[5] = target: GalNAc(a1-3)GalNAc
Outline: as §1

[6] = target: GalNAc(a1-3)GalNAc(b1-3)Gal(a1-4)Gal(b1-4)Glc
Outline: as §1

[7] = target: GalNAc(a1-3)GalNAc(b1-3)Gal(a1-4)Gal(b1-4)GlcNAc
Outline: as §1

[8] = target: GalNAc(b1-3)Gal
Outline: as §1

[9] = target: GalNAc(b1-3)Gal(a1-4)Gal(b1-4)GlcNAc
Outline: as §1

[10] = target: GalNAc(b1-3)Gal(a1-4)Gal(b1-4)GlcNAc(b1-3)Gal(b1-4)Glc
Outline: as §1

[11] = target: GalNAc(b1-3)Gal(a1-6)Gal(b1-4)Glc
Outline: as §1

[12] = target: GalNAc(b1-3)GalNAc
Outline: as §1

[13] = target: GalNAc(b1-3)GlcNAc
Outline: as §1

[14] = target: GalNAc(b1-4)Gal(b1-4)Glc
Outline: as §1

[15] = target: GalNAc(b1-4)GlcNAc
Outline: as §1

[16] = target: GalNAc(b1-4)GlcNAc(b1-2)Man
Outline: as §1

[17] = target: GalNAc(b1-4)GlcNAc(b1-2)Man(a1-3)[GalNAc(b1-4)GlcNAc(b1-2)Man(a1-6)]Man(b1-4)GlcNAc(b1-4)GlcNAc
Outline: as §1

[18] = target: GalNAc(b1-4)GlcNAc(b1-3)GalNAc(b1-4)GlcNAc
Outline: as §1

[19] = target: GalNAc(b1-4)GlcNAc6S
Outline: as §1

[20] = target: GalNAc(b1-6)GalNAc
Outline: as §1

[21] = target: GalNAc3S(b1-4)GlcNAc
Outline: as §1

[22] = target: GalNAc3S(b1-4)GlcNAc3S
Outline: as §1

[23] = target: GalNAc3S(b1-4)[Fuc(a1-3)]GlcNAc
Outline: as §1

[24] = target: GalNAc4S6S(b1-4)GlcNAc
Outline: as §1

[25] = target: GalNAc6S(b1-4)GlcNAc
Outline: as §1

[26] = target: Glc(a1-4)Glc
Outline: as §1

[27] = target: Glc(a1-4)Glc(a1-4)Glc(a1-4)Glc
Outline: as §1

[28] = target: Glc(a1-6)Glc(a1-6)Glc
Outline: as §1

[29] = target: Glc(a1-6)Glc(a1-6)Glc(a1-6)Glc
Outline: as §1

[30] = target: Glc(b1-4)Glc
Outline: as §1

[31] = target: Glc(b1-6)Glc
Outline: as §1

[32] = target: GlcA(b1-3)Gal
Outline: as §1

[33] = target: GlcA(b1-3)GlcNAc
Outline: as §1

[34] = target: GlcA(b1-6)Gal
Outline: as §1

[35] = target: GlcA3S(b1-3)Gal(b1-4)GlcNAc(b1-2)Man
Outline: as §1

[36] = target: GlcA3S(b1-3)Gal(b1-4)GlcNAc(b1-3)Gal(b1-4)Glc
Outline: as §1

[37] = target: GlcNAc(a1-3)Gal(b1-4)GlcNAc
Outline: as §1

B1: PX9937J-pdi-523-26-523 (Parabacteroides distasonis) (protein)
chain: EPVSSISDANYWKSPDLFKAFNIGLHGLLRSQSSYNIFVLGEPRSDIYGDQPFGGEATQGVERFSYNTINAEFTGISNFANFYTTLNQINLMIRRTNETDLLGEAEKNYYLGQAYGLRAYIYFHLLRSWGDVIITTEPTLGSELDISHLDKAASPASEVMDLIKKDIDASEKAFGGDYSYKQGKCYWSKPATLMLKGEVYLWSGRQMGGGTGDYTVAKTALQDLQQNGNLKLQEKFTDVFSFNNKENSEMIFALHSGKEDDFMMWRDYNWRNNMVPQREYMAGYCDETGTPFLEIPGYNLQGLMRYQVKKDHYLKSFREGDTRLKGTLKAVYKKHEDGTLEYIAPIQYKFQGTTLEGSNERSWYDDYPIYRYADALLLLAEAKALLGEDPSTEINAVRERAYGSEYFNAHKNEVAYPNDKGSFYNDNPFEAGDENVMEAILKERLREFFFEGKRWYDLRRFGKDYVLKYTTAQESRLLWPINEGALTNNPALKQTPGY
- glycan array binding signal (z-score) [1]: -0.163
- glycan array binding signal (z-score) [2]: 0.696
- glycan array binding signal (z-score) [3]: 0.691
- glycan array binding signal (z-score) [4]: -0.127
- glycan array binding signal (z-score) [5]: -0.541
- glycan array binding signal (z-score) [6]: -0.314
- glycan array binding signal (z-score) [7]: -1.03
- glycan array binding signal (z-score) [8]: -0.506
- glycan array binding signal (z-score) [9]: -0.576
- glycan array binding signal (z-score) [10]: -0.494
- glycan array binding signal (z-score) [11]: -0.319
- glycan array binding signal (z-score) [12]: -0.55
- glycan array binding signal (z-score) [13]: -0.008
- glycan array binding signal (z-score) [14]: 0.163
- glycan array binding signal (z-score) [15]: -0.223
- glycan array binding signal (z-score) [16]: -0.322
- glycan array binding signal (z-score) [17]: 0.019
- glycan array binding signal (z-score) [18]: 2.48
- glycan array binding signal (z-score) [19]: 4.57
- glycan array binding signal (z-score) [20]: 0.147
- glycan array binding signal (z-score) [21]: 0.755
- glycan array binding signal (z-score) [22]: -0.112
- glycan array binding signal (z-score) [23]: 0.108
- glycan array binding signal (z-score) [24]: 0.279
- glycan array binding signal (z-score) [25]: -0.542
- glycan array binding signal (z-score) [26]: -0.14
- glycan array binding signal (z-score) [27]: 1.07
- glycan array binding signal (z-score) [28]: -0.451
- glycan array binding signal (z-score) [29]: 0.183
- glycan array binding signal (z-score) [30]: -0.296
- glycan array binding signal (z-score) [31]: 0.051
- glycan array binding signal (z-score) [32]: -0.265
- glycan array binding signal (z-score) [33]: -0.75
- glycan array binding signal (z-score) [34]: -0.638
- glycan array binding signal (z-score) [35]: -0.935
- glycan array binding signal (z-score) [36]: -0.784
- glycan array binding signal (z-score) [37]: -0.308
